The campaign covered roughly 360,000 compounds. About 11,000 (3.1%) were called active. Inconclusive results, whose numbers are uncertain, are shown with a selection of clear calls. Calls follow the shape of the dose curve; as a rule, active = well fitted inhibition curve with a large enough effect; inconclusive = small, poorly fitted or top-dose-only effect; inactive = no such curve, though single readings can be large or run the other way. No potency is given beside an inconclusive call; the fits are too rough.
These compounds were tested against Schistosoma mansoni thioredoxin glutathione reductase (TGR) (UniProt Q962Y6) (assay: qHTS Assay for the Inhibitors of Schistosoma Mansoni Peroxiredoxins). Settings: purified TGR, DTNB reduction, TNB absorbance 405 nm; activity change, negative = inhibition: at 114 µM (top of the series) unless noted.
How it was run: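 TGR 20 nM + NADPH 100 uM (dispensed conc.), cpd preinc 15 min RT; start with NADPH (500 uM addition) then DTNB (15 mM addition). Kinetic TNB absorbance, 405 nm filter. Four-parameter Hill fit across titration.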
`CC1=C/C(=C/N(C)c2ccccc2)C(=O)S1` was tested, and the Potency was inconclusive [inhibitor, partial curve]. `COc1ccc2[nH]c3c(N4CC(C)OC(C)C4)ncnc3c2c1` (stereo unspecified) was tested, and the “activity change, negative = inhibition” value was inactive: -1.7%. For `CCOC(=O)c1c(C)oc2c1c(C(c1cccnc1)N1CCCCC1)c(O)c1ccccc12` (stereo unspecified), the Potency was active: 0.708 µM. In the case of `O=C(CC1C(=O)NCCN1Cc1cccc(Oc2ccccc2)c1)NCc1cccnc1` (stereo unspecified), the Potency is reported as inconclusive [inhibitor, partial curve]. For `CCOc1cc(C(C(=O)NCC2CCCO2)N(C(=O)Cn2nnc3ccccc32)c2ccc(C(C)=O)cc2)ccc1O` (stereo unspecified), the Potency was inconclusive [inhibitor, partial curve]. In the case of `O=C(N/N=C\c1coc2ccccc2c1=O)c1ccco1`, the Potency is reported as active: 28.2 µM. With `NC(=O)COc1c(-c2ccc(Br)o2)oc2ccccc2c1=O` the Potency was inconclusive [inhibitor, partial curve]. `C=CCOc1ccc(CNn2cn[nH]c2=S)cc1OCC` was tested, and the Potency was inconclusive [inhibitor, partial curve, poor fit]. For `CN1CCN(CC(O)COc2ccc(Cl)cc2)CC1` (stereo unspecified), the Potency was inconclusive [inhibitor, partial curve, poor fit]. For `COc1ccc(NC(=O)CN2CCN(CC(=O)Nc3ccc(OC)cc3)CC2)cc1`, the “activity change, negative = inhibition” value was inactive: 4.67%. In the case of `O=C(CCCOc1ccc(Cl)cc1Cl)N1CCC2(CC1)OCCO2`, the Potency is reported as inconclusive [inhibitor, partial curve]. In the case of `Cc1cc(N2CCCC2)ccc1/C=C1/C(=O)N(C)C(=S)N1C`, the “activity change, negative = inhibition” value is reported as inactive: -21.8%. `O=c1[nH]cccc1-c1nc2ccccc2[nH]1` was tested, and the “activity change, negative = inhibition” value was inactive: -5.52%. `O=S1(=O)CCC(NC(=S)SCc2ccccc2Br)C1` (stereo unspecified) was tested, and the Potency was inconclusive [inhibitor, full curve]. For `COC(=O)CC1c2ccccc2S(=O)(=O)N1Cc1ccccc1` (stereo unspecified), the Potency was active: 31.6 µM. `Cc1ccc(S(=O)(=O)N(CC(=O)Nc2cccnc2)c2ccccc2C)cc1` was tested, and the “activity change, negative = inhibition” value was inactive: 11.3%. For `O=[N+]([O-])c1cc(C(F)(F)F)cc([N+](=O)[O-])c1NN=C1CCCCC1`, the Potency was inconclusive [inhibitor, partial curve, poor fit]. `Cc1c(NC(=O)COC(=O)COc2ccc(Nc3ccccc3)cc2)c(=O)n(-c2ccccc2)n1C` was tested, and the Potency was inconclusive [inhibitor, partial curve]. In the case of `CCSc1ncc(Cl)c(C(=O)Nc2nc3ccc(OC)cc3s2)n1`, the “activity change, negative = inhibition” value is reported as inactive: -3.79%. For `CC1CCC(NC(=O)CCS(=O)(=O)c2ccc3c(c2)NC(=O)C(C)S3)CC1` (stereo unspecified), the Potency was inconclusive [inhibitor, full curve, poor fit]. In the case of `Cc1cc(=O)n2nc(N3CCC(C(=O)Nc4ccc(C)c(Cl)c4)CC3)sc2n1`, the “activity change, negative = inhibition” value is reported as inactive: -0.0009%. With `O=C(c1ccco1)N1CCN(C(=O)C2CCN(S(=O)(=O)Cc3ccccc3)CC2)CC1` the Potency was inconclusive [inhibitor, full curve, poor fit]. `C[C@]1(OC(=O)/C=C/c2ccccc2)C[C@@H](O)[C@]2(O)C=CO[C@@H](O[C@@H]3O[C@H](CO)[C@@H](O)[C@H](O)[C@H]3O)[C@@H]21` was tested, and the Potency was inconclusive [inhibitor, full curve]. For `CCOC(=O)C(Cc1ccccc1)C(=O)NCc1ccccc1` (stereo unspecified), the “activity change, negative = inhibition” value was inactive: -0.613%. In the case of `Cc1ccc(CNC(=O)CN(C(=O)C2(C)CC(=O)N=C3C=CC=CN32)c2cccc(C)c2C)cc1` (stereo unspecified), the “activity change, negative = inhibition” value is reported as inactive: 1.66%. `O=C(NCCc1nnc2ccccn12)c1cccs1` was tested, and the “activity change, negative = inhibition” value was inactive: -2.74%. `N=C1C(c2nc3ccccc3s2)=C(O)CN1Cc1ccco1` was tested, and the Potency was inconclusive [inhibitor, partial curve]. In the case of `NC(=O)C(=O)NN=C1C2CC3CC(C2)CC1C3`, the “activity change, negative = inhibition” value is reported as inactive: 12%. In the case of `CCOC(=O)C1=C(Cc2ccc(OC)cc2)C(=O)c2ccccc2C1=O`, the Potency is reported as active: 14.1 µM. In the case of `O=C(COC(=O)CCSc1ccc(Cl)cc1)NCc1ccco1`, the Potency is reported as inconclusive [inhibitor, partial curve]. For `O=C(Nc1ccccc1)Nc1nnc(Cc2ccccc2F)s1`, the Potency was inconclusive [inhibitor, single point]. With `O=C(NC1CCCC1)c1cnn2c(C(F)(F)F)cc(-c3ccco3)nc12` the Potency was inconclusive [inhibitor, partial curve]. For `CNC(=S)Nc1ccc(Br)cc1`, the Potency was inconclusive [inhibitor, partial curve]. `CCN1CCN(C(c2cccc(F)c2)c2c(O)cc(C)n(Cc3ccco3)c2=O)CC1` (stereo unspecified) was tested, and the Potency was active: 5.01 µM. In the case of `COc1ccc(C(=O)N/N=C/c2ccc(OC)c(COc3ccc(F)cc3)c2)cc1`, the “activity change, negative = inhibition” value is reported as inactive: -19.7%. For `CCN(CC)C1CC(=O)N(c2ccc(Br)cc2)C1=O` (stereo unspecified), the Potency was active: 7.08 µM. In the case of `O=C(Nc1ccccc1)Oc1cccc(Br)c1`, the “activity change, negative = inhibition” value is reported as inactive: 12%. With `O=S(=O)(c1ccccc1)N1CCN(Cc2ccccc2)CC1` the “activity change, negative = inhibition” value was inactive: -6.53%. For `COC(=O)C1=C(Nc2ccccc2NC(=O)c2ccccc2C(=O)O)CSC1`, the Potency was inconclusive [inhibitor, full curve]. In the case of `CNc1cc(CSC)nc(SCc2ccc(Cl)cc2Cl)n1`, the “activity change, negative = inhibition” value is reported as inactive: 5.3%. In the case of `C=CCSc1nnc(-c2ccc([N+](=O)[O-])cc2)o1`, the Potency is reported as inconclusive [inhibitor, partial curve]. `COc1ccc(C2=NCCn3nc4cc([N+](=O)[O-])ccc4c32)cc1` was tested, and the Potency was active: 25.1 µM. With `COc1ccc(NC(=O)CN2CCCN(S(=O)(=O)c3ccc(F)cc3)CC2)cc1` the Potency was inconclusive [inhibitor, partial curve]. In the case of `O=C1CCCc2c1cc(C(=O)NC1CCSC1=O)c(=O)n2-c1ccccc1` (stereo unspecified), the Potency is reported as active: 35.5 µM. In the case of `CC(C)[n+]1ccn(C2=C([O-])c3ccccc3C(=O)/C2=N\S(=O)(=O)c2ccccc2)c1`, the Potency is reported as active: 44.7 µM. With `COc1ccc(CCC(=O)Nc2ccc(OC)c(S(=O)(=O)N3CCCCC3)c2)cc1OC` the “activity change, negative = inhibition” value was inactive: 0.615%. In the case of `CC(=O)NCCc1ccc(C(=O)CSc2nnc(C3CC3)n2C2CC2)cc1`, the Potency is reported as inconclusive [inhibitor, full curve, poor fit]. In the case of `Cc1c(CC(=O)NCCc2ccc(Cl)cc2)c(=O)oc2c(C)c3occ(C(C)(C)C)c3cc12`, the “activity change, negative = inhibition” value is reported as inactive: 3.61%. For `Cc1ccc(-c2nnc3sc(-c4ccncc4)nn23)cc1`, the Potency was inconclusive [inhibitor, single point]. `O=S(=O)(c1ccc(NC(=S)NC2CCCC2)cc1)N1CCCC1` was tested, and the “activity change, negative = inhibition” value was inactive: -23.3%. `Cc1ccc(-c2cc(C(=O)NCCN3CCOCC3)c3ccccc3n2)o1` was tested, and the Potency was active: 44.7 µM. For `COc1cccc(CNC(=O)C2CCN(c3nnc(-n4c(C)ccc4C)s3)CC2)c1`, the Potency was inconclusive [inhibitor, partial curve]. With `C=Cc1c(C)c2cc3[nH]c(cc4nc(cc5nc(cc1[nH]2)C(C)=C5CCC(=O)O)C(CCC(=O)O)=C4C)c(C)c3C=C` the Potency was inconclusive [inhibitor, partial curve]. In the case of `CCc1ccccc1NS(=O)(=O)c1ccc2c(c1)OCC(C(=O)N1CCCC1)O2` (stereo unspecified), the Potency is reported as inconclusive [inhibitor, single point]. With `O=C(CN1C(=O)COc2ccccc21)NCc1ccccn1` the Potency was inconclusive [inhibitor, full curve, poor fit]. With `O=C(NCc1cccc(F)c1)c1cccc(NC(=O)c2nsc3ccccc23)c1` the “activity change, negative = inhibition” value was inactive: 6.76%. For `CCN(CC)S(=O)(=O)c1ccc(N2CCOCC2)c(NS(=O)(=O)c2ccc(OC)cc2)c1`, the “activity change, negative = inhibition” value was inactive: 3.2%. For `Cn1c(=O)c2c(nc(CN3CCN(C(=O)c4ccco4)CC3)n2CCCc2ccccc2)n(C)c1=O`, the Potency was inconclusive [inhibitor, full curve, poor fit]. With `Cc1cc(C)c(C(=O)N2CCCC(Nc3ccc(F)cc3)C2)o1` (stereo unspecified) the Potency was inconclusive [inhibitor, full curve, poor fit]. For `O=C(NCc1ccco1)C(=O)c1cn(CC(=O)N2CCCC2)c2ccccc12`, the Potency was inconclusive [inhibitor, partial curve]. For `CCOc1ccc(/C=N/N2C(C)CCCC2C)cc1OC` (stereo unspecified), the “activity change, negative = inhibition” value was inactive: 25.4%. For `COc1cccc(NC(=O)CN2CCc3ccccc3C2)c1`, the “activity change, negative = inhibition” value was inactive: -18.8%. In the case of `O=C(CC1C(=O)NCCN1Cc1ccccc1)NCCCOc1cccnc1` (stereo unspecified), the Potency is reported as inconclusive [inhibitor, partial curve]. For `CCCn1c(=N)n(CC(=O)c2ccc(Cl)cc2)c2ccccc21`, the Potency was inconclusive [inhibitor, partial curve, poor fit]. In the case of `O=C(CSc1nc2ccc(Cl)cc2[nH]1)NCc1ccco1`, the Potency is reported as active: 14.1 µM. With `COc1ccccc1-c1nc(S(=O)(=O)c2ccccc2)c(N2CCCCC2)o1` the Potency was active: 0.794 µM. With `Cc1ccc(NC(=O)COC(=O)CN2C(=O)COc3ccccc32)cc1` the “activity change, negative = inhibition” value was inactive: -9.62%. For `CC1CN(C(=O)CSc2nc(-c3ccc(F)cc3)cs2)CC(C)O1` (stereo unspecified), the “activity change, negative = inhibition” value was inactive: -6.64%. `COc1ccc(Cn2nnnc2C(C(C)C)N2CCN(c3ccccc3OC)CC2)cc1` (stereo unspecified) was tested, and the “activity change, negative = inhibition” value was inactive: 8.16%. For `O=C(Nc1cccc(NC(=O)c2cccnc2)c1)c1cccnc1`, the “activity change, negative = inhibition” value was inactive: -4.06%. `O=C(N/N=C/C=C/c1ccccc1[N+](=O)[O-])c1cc(-c2ccccc2)n[nH]1` was tested, and the “activity change, negative = inhibition” value was inactive: -2.64%. With `CCOc1cc(C2Nc3cccc4cccc(c34)N2)ccc1O` the Potency was active: 11.2 µM. `CCc1ccc2c(CN(CC)Cc3nc4ccccc4c(=O)[nH]3)cc(=O)oc2c1` was tested, and the Potency was inconclusive [inhibitor, partial curve]. In the case of `Cc1ccc(/C=N/c2sc3c(c2C(N)=O)CCCC3)o1`, the Potency is reported as active: 22.4 µM. In the case of `CCn1cc(CNC(=S)Nc2cccc(Cl)c2C)cn1`, the Potency is reported as inconclusive [inhibitor, partial curve]. In the case of `O=C(C1=C[C@H](c2ccccc2)C[C@H](OCCCCO)O1)N1CCN(Cc2ccc3c(c2)OCO3)CC1`, the “activity change, negative = inhibition” value is reported as inactive: -11.6%.
% is scaled to controls: 0 for no effect and ±100 for the full control effect; potency is read from the fitted curve at half-maximal effect; tags tell the direction and shape of the fitted curve.
Also: nearly all actives have a fitted effect of over 60% in size.
